PubChem BioAssay AID1346428 (National Center for Advancing Translational Sciences (NCATS), 2018)
Among all 48,000 compounds or so, about 1,200 (2.5%) were called active. Inconclusive results (about 2%) are left out.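 Rule for the calls: active = activation of at least 60% and not above a set upper limit (about 1 call in 100 departs from these limits); inconclusive = activation of 40% to 60%, or above that upper limit; inactive = activation under 40%.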 The list shows a part of the results.

Molecular target: Probable G-protein coupled receptor 32 (Homo sapiens) (UniProt O75388)
Assay: qHTS for Agonists of Human Resolvin D1 Receptor DRV1; note: 0% is about no effect
Details: CHO-K1 GPR32 beta-arrestin PathHunter luminescence, 90 min; at 76.9 µM; hits give high values; zero percent set by DMSO-only wells
Summary of the method: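 Beta-arrestin recruitment read-out: luminescence from complemented beta-Gal in CHO-K1 GPR32 PathHunter cells, measured 1 h after detection reagent at ambient temperature following 90 min compound exposure at 37 °C; DMSO served as basal (EC0) control.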

Chain of UniProt O75388 (O75388 whole entry, looked up): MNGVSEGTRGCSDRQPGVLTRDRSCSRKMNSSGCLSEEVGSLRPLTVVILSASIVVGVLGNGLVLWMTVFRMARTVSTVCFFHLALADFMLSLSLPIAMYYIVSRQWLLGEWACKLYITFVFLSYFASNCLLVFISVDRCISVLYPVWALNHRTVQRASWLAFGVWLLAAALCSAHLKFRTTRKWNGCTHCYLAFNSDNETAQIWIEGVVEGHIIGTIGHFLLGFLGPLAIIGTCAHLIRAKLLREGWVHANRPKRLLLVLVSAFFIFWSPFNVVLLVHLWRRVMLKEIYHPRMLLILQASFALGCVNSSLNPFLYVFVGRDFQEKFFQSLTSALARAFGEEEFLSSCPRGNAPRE

activation, inactive:
COc1ccc(NC(=O)/C=C\C(=O)N(c2ccc(C(C)C)cc2)C(C(=O)NCc2ccco2)c2ccc(F)cc2)cc1 (stereo not drawn) -22.8%
O=C(c1ccccc1)N(Cc1ccco1)Cc1cccs1 -12.7%
CCn1c(C)c(C)c2cc(C(=O)NCc3cccc(C)c3)ccc21 -23.1%
CCc1ccccc1NC(=O)CCS(=O)(=O)c1cccc2nonc12 5.36%
COc1ccc(OCC(=O)N2CCN(C(=O)c3cccc(OC)c3)CC2)cc1 4.97%
COc1cccc(CNC(=O)CCc2c(C)c3cc4c(C)coc4c(C)c3oc2=O)c1 -5.07%
COc1ccccc1NC(=O)c1sc2nc(C)c(C(=O)Nc3ccc(C)cc3C)c(-c3ccc(C)o3)c2c1N -16.1%
NS(=O)(=O)c1ccc2nc(NC(=O)COc3ccccc3)sc2c1 -8.25%
COCCNC(=O)CSc1nc(-c2ccccc2C)nc2c1c(=O)n(C)c(=O)n2C -14.3%
Cc1ccc(NC(=O)Cn2c(=O)oc3cc(S(=O)(=O)N4CCCCCC4)ccc32)cc1Cl 36%
CC(C)C(NS(=O)(=O)c1ccc2c(c1)oc(=O)n2C)C(=O)NCCc1ccc(Cl)cc1 (stereo not drawn) 13.6%
CCOc1ccc(Nc2c(S(=O)(=O)c3ccccc3)cnc3ccccc23)cc1 -52.2%
Cc1ccc2cccc(NC(=O)c3ccc(-c4cccc(Cl)c4)o3)c2n1 10.6%
CCCN(CCC)C(=O)c1cc2c(=O)n3cccc(C)c3nc2n1C -16.5%
Cc1ccc(NC(=O)c2nc(S(C)(=O)=O)ncc2N(Cc2ccco2)Cc2ccco2)cc1C -14.6%
Cc1ccc(NC(=O)c2c(C)oc3ccc(O)c(CN4CCCCC4)c23)c(C)c1 -1.5%
Cc1ccc(-c2nnc(Nc3ccc(S(N)(=O)=O)cc3)c3ccccc23)cc1S(=O)(=O)N1CCCCC1 12.5%
CCC(=O)N1CCc2cc(Br)cc(S(=O)(=O)CCC(=O)N(CC)Cc3ccccc3)c21 -11.3%
CCOCCCNC(=O)C(c1ccc(Cl)cc1)N(Cc1cccs1)C(=O)c1ccc(NC(C)=O)cc1 (stereo not drawn) -2.65%
Cc1ccc(NC(=O)CN2C(=O)C3(SCC(=O)N3c3ccc(F)c(F)c3)c3ccccc32)c(C)c1 (stereo not drawn) -11.1%
CC(C)(Oc1ccc(Cl)cc1)C(=O)Nc1nc2ccc(S(C)(=O)=O)cc2s1 13.7%
CN(C)c1ccc(C(CNC(=O)c2c(F)cccc2Cl)N2CCOCC2)cc1 (stereo not drawn) -5.73%
COc1ccc(-n2c(=O)c3c4c(sc3n3c(SCCC(C)C)nnc23)COC(C(C)C)C4)cc1 (stereo not drawn) -16.1%
CC(=O)N1CCc2cc(CNS(=O)(=O)c3ccc(Cl)s3)ccc21 3.2%
COc1ccc(Cl)cc1NC(=O)NCC1CCN(Cc2ccccc2F)CC1 -10.4%
CCOc1ccc(OCC)c(NS(=O)(=O)c2cc(-c3onc(C)c3C)ccc2OC)c1 -17.4%
COc1cc(OC)cc(C(=O)Nc2ccc3oc(-c4cccc5c(Br)cccc45)nc3c2)c1 -10.6%
CN1C(=O)C2(SCC(=O)N2c2ccc(F)cc2)c2ccccc21 (stereo not drawn) 2.31%
COc1cc(NC(=O)c2c(C)oc3ncnc(N4CCCCC4)c23)cc(OC)c1 -33.5%
CN(Cc1ccccc1)C(=O)c1cn(C)c2ccc(S(=O)(=O)N(C)C3CCCCC3)cc2c1=O -21.5%
CCCS(=O)(=O)c1nc(S(=O)(=O)c2ccc(C)cc2)c(NCc2ccccc2)s1 -18.6%
Cc1ccc2c(c1)c(=O)c1ccccc1n2CCCC(=O)Nc1c(F)cccc1F 11.3%
CCC(=O)N1CCc2cc(S(=O)(=O)CCC(=O)NCc3cccc(OC)c3)ccc21 -0.372%
C=CCN1CCc2c(cc(O)c(O)c2Br)[C@@H](c2ccccc2)C1 -5.37%
Cc1cccc(Cn2c(SCc3ccc(C(=O)NC4CCCCC4)cc3)nc3ccncc32)c1 -6.01%
COc1ccc(NC(=O)c2c(C)oc3ccc(O)c(CN4CCN(Cc5ccccc5)CC4)c23)cc1 -23.9%
CCOc1ccc(NC(=O)CCS(=O)(=O)c2ccc(Br)cc2)cc1 1.79%
COc1ccc(/C=C(/C#N)c2nc(-c3ccc(Br)cc3)cs2)cc1 14%
CCOC(=O)c1ccc(N2C(=O)c3n[nH]c(-c4cccs4)c3C2c2ccc(Cl)cc2Cl)cc1 (stereo not drawn) -1.48%
Cc1cc(Br)ccc1NC(=O)C1CCN(S(=O)(=O)c2ccc(Br)s2)CC1 25.9%
Cc1ccc2c(c1)-c1c(cnn1CC(=O)Nc1ccccc1C#N)CO2 -22.7%
CCc1ccc(C2=NN(CCC(=O)NCCc3ccc(Cl)cc3)C(=O)CC2)cc1 -20%
Cc1ccc(C(=O)COC(=O)CCC(=O)Nc2ccc(Oc3cc(C)ccc3C(C)C)cc2)cc1 -24.9%
CC(=O)N1CCCc2cc(S(=O)(=O)N3CCCC(C(=O)N4CCN(c5cc(C)ccc5C)CC4)C3)ccc21 (stereo not drawn) 20.4%
Cc1ccc(OC(=O)CSc2nnc(CNC(=O)c3ccccc3)o2)cc1 4.97%
CCCn1c2ccccc2c2cnn(CC(=O)NC(CCSC)C(=O)OC)c(=O)c21 (stereo not drawn) 10.8%
Cc1ccc(CCNC(=O)CCSCc2ccccc2Cl)cc1 -12.6%
C[C@@H]1C[C@H]2[C@@H]3C[C@H](F)C4=CC(=O)C(Cl)=C[C@]4(C)[C@@]3(F)[C@@H](O)C[C@]2(C)[C@@]1(O)C(=O)CO -3.99%
CCOC(=O)c1nnc2c(-c3ccc(Cl)cc3)c(C)nn2c1C -1.9%
Cc1c(C(=O)NCCN(C)C)sc2nc3n(c(=O)c12)CCC3 5.96%
Cc1cccc(NC(=O)Cc2csc(COc3cccc(C)c3)n2)c1 1.95%
CCOC(=O)Cn1c(=O)n(C2CCCCC2)c2nc(-c3cccc(OC)c3)nc(C(N)=O)c21 -0.33%
Cc1cc(C)cc(NC(=O)CCc2c(C)nc3c4cccnc4nn3c2C)c1 1.22%
Cc1cccc(C(=O)NCC(=O)OCc2cc(=O)n3nc(C4CC4)sc3n2)c1 5.98%
CCCNC(=O)N1CCN(S(=O)(=O)c2ccc3c(ccn3C)c2)CC1 16.2%
COc1cc2c(c(OC)c1)C(c1cc(OC)c(OC)c(OC)c1)CC(=O)N2 (stereo not drawn) 11.2%
Cc1c2cnn(-c3ccccc3)c(=O)c2c(C)n1CC(=O)NCc1ccccc1 15.2%
Cc1ccc(Cl)cc1NS(=O)(=O)c1cc2c3c(c1)CC(=O)N3CCC2 -16.4%
Cc1cccc(-n2c(SCC(=O)c3ccccc3)nnc2-c2ccc(Br)cc2)c1 -7.99%
CCOc1ccc(S(=O)(=O)Nc2ccc(-c3ccc(OC)nn3)cc2)cc1 -0.739%
CCC(Sc1nc2nccnc2c(=O)n1Cc1ccc(C)cc1)C(=O)NC1CCCCC1 (stereo not drawn) -19.5%
CCc1nn2c(=O)c(S(=O)(=O)Nc3cccc(F)c3)c(C)nc2s1 12.6%
CCOC(=O)C1CCCN(S(=O)(=O)c2csc(C(N)=O)c2)C1 (stereo not drawn) 0.242%
COc1ccccc1N1CCN(C(=O)c2cc3ccc4ccc(C)[nH]c4c3n2)CC1 18.5%
CCOc1ccc(-c2cc3nc(C4CCN(C(=O)OC(C)(C)C)CC4)c(C(=O)Nc4ccc(C)cc4C)cn3n2)cc1 -10.5%
Cc1ccc(CNC(=O)Cn2c(=O)n(-c3cccc(Cl)c3)c(=O)c3sc4ccccc4c32)cc1 -19.3%
COC(=O)c1ccc(O)cc1 14.8%
CC(CNC(=O)CCCn1c(=O)c2cccn2c2cccnc21)c1ccccc1 (stereo not drawn) -13.5%
O=C(c1ccc(CS(=O)c2ccccc2Cl)o1)N1CCN(c2cccc(Cl)c2)CC1 (stereo not drawn) -6.54%
Cc1ccccc1Nc1c(-c2ccncc2)nc2ccc(Cl)cn12 -26.8%
COc1cccc(CNC(=O)c2ccc(NC(=O)N3CC(C)Sc4ccccc43)cc2)c1 (stereo not drawn) -16.8%
CCOc1cccc2sc(N(CCN(CC)CC)C(=O)c3ccco3)nc12 15.3%
CC(C)(C)OC(=O)N1CCC(c2c(C(=O)N3CCN(C(=O)c4ccco4)CC3)cnn2-c2ccccc2)CC1 4.55%
COc1ccc(CCNC(=O)c2ccc(CNS(=O)(=O)c3ccccc3)cc2)cc1OC 22.5%
COc1cc(NC(=O)c2ccc(NC(=O)N3CCSc4ncccc43)cc2)cc(OC)c1 -2.88%
O=C(CSc1cn(CC(=O)N2CCCC2)c2ccccc12)Nc1cc(C(F)(F)F)ccc1Cl -6.37%
Cc1ccc2nc(Cl)c3cc(C(=O)NC4CCCCCC4)sc3c2c1 -15.8%
CCC1CN(C(=O)Nc2ccc(C(=O)O)cc2)c2cc(Cl)ccc2O1 (stereo not drawn) -23%
CCOc1ccc(NC(=O)CN2CCN(c3ccc(Cl)cc3)CC2)cc1 -0.0626%
COc1ccc(OC)c(CCNC(=O)c2cc3c(=O)n(C)c4ccccc4c3n2C)c1 -3.79%
O=C(c1cc(F)cc(F)c1)N1CCC(c2nc(-c3ccc(S(=O)(=O)N4CCCC4)cc3)no2)CC1 -3.22%
COc1ccc(CN(C(=O)Cc2coc3ccc(C)cc23)C2CCS(=O)(=O)C2)cc1 (stereo not drawn) -0.254%
CCOC(=O)c1cccc(NC(=O)C2CCCN(S(=O)(=O)c3cc(Br)cc4c3N(C(=O)CC)CC4)C2)c1 (stereo not drawn) 3.79%
